Some of the results follow.
Target: T1, MBP-FoxP1dN (Mus musculus, UniProt P58462 326-579)
T1 sequence: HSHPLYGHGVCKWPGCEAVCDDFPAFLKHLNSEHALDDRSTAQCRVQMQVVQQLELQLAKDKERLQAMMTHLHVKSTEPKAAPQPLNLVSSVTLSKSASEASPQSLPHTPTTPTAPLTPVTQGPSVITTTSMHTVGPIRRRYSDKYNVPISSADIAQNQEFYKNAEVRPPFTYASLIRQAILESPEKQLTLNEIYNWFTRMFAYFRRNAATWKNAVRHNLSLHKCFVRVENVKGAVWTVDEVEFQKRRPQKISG
Test: PD-seq (MBP pull-down with sequencing); 20 mM Tris-HCl pH 7.5, 100 mM NaCl, 1.5 mM MgCl2, 0.4 uM protein, 0.1 uM dsDNA library, 30 min, room temperature, amylose pull-down; high values mean tight binding
Details: protein: recombinant; tags: His6-MBP; chain copies: 2; dsDNA, one strand shown
How it was run: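 Binding is reads-per-million enrichment of pull-down over input, with replicates pooled. It comes from 30 min room-temperature incubation in Tris pH 7.5 buffer with NaCl and MgCl2 of 0.4 µM His6-MBP-tagged, N-terminally truncated mouse FoxP3 or FoxP1 fragment from E. coli with 0.1 µM Klenow-filled degenerate double-stranded DNA library, followed by amylose resin capture, three washes and Illumina sequencing of the released DNA.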

Row | Sequence | binding signal
1 | GATGATTGTTCTCCCAGCTGATGAATTCGTCAGATCGAGTAAACAAATTTTCCTAATCTTTCTGTTCAAGCGCCATCTAC | 0.899 RPM ratio (pull-down/input)
2 | GATGATTGTTCTCCCAGCTGATGAATTCTCTATCTCGAGTAAACAAATTTTCCTAATCTTTCTGTTCAAGCGCCATCTAC | 0.845 RPM ratio (pull-down/input)
3 | GATGATTGTTCTCCCAGCTGATGAATTCGTGGGCTCGAGTAAACAAATTTTCCTAATCTTTCTGTTCAAGCGCCATCTAC | 0.788 RPM ratio (pull-down/input)
4 | GATGATTGTTCTCCCAGCTGATGAATTCCCTCCATCGAGTAAACAAATTTTCCTAATCTTTCTGTTCAAGCGCCATCTAC | 0.855 RPM ratio (pull-down/input)
5 | GATGATTGTTCTCCCAGCTGATGAATTAAAAATATCGAGTAAACAAATTTTCCTAATCTTTCTGTTCAAGCGCCATCTAC | 1.35 RPM ratio (pull-down/input)
6 | GATGATTGTTCTCCCAGCTGATGAATTTGGAACGTCGAGTAAACAAATTTTCCTAATCTTTCTGTTCAAGCGCCATCTAC | 0.853 RPM ratio (pull-down/input)
7 | GATGATTGTTCTCCCAGCTGATGAATTTTTGTGCTCGAGTAAACAAATTTTCCTAATCTTTCTGTTCAAGCGCCATCTAC | 1.12 RPM ratio (pull-down/input)
8 | GATGATTGTTCTCCCAGCTGATGAATTCAGGACTTCGAGTAAACAAATTTTCCTAATCTTTCTGTTCAAGCGCCATCTAC | 0.799 RPM ratio (pull-down/input)
9 | GATGATTGTTCTCCCAGCTGATGAATTTTGCACGTCGAGTAAACAAATTTTCCTAATCTTTCTGTTCAAGCGCCATCTAC | 0.93 RPM ratio (pull-down/input)
10 | GATGATTGTTCTCCCAGCTGATGAATTCACCGTATCGAGTAAACAAATTTTCCTAATCTTTCTGTTCAAGCGCCATCTAC | 0.882 RPM ratio (pull-down/input)
11 | GATGATTGTTCTCCCAGCTGATGAATTCTGGCAGTCGAGTAAACAAATTTTCCTAATCTTTCTGTTCAAGCGCCATCTAC | 0.848 RPM ratio (pull-down/input)
12 | GATGATTGTTCTCCCAGCTGATGAATTCCTACGTTCGAGTAAACAAATTTTCCTAATCTTTCTGTTCAAGCGCCATCTAC | 0.874 RPM ratio (pull-down/input)
13 | GATGATTGTTCTCCCAGCTGATGAATTGTTTTGCTCGAGTAAACAAATTTTCCTAATCTTTCTGTTCAAGCGCCATCTAC | 1.95 RPM ratio (pull-down/input)
14 | GATGATTGTTCTCCCAGCTGATGAATTGAAGCTCTCGAGTAAACAAATTTTCCTAATCTTTCTGTTCAAGCGCCATCTAC | 0.797 RPM ratio (pull-down/input)
15 | GATGATTGTTCTCCCAGCTGATGAATTGTATTAATCGAGTAAACAAATTTTCCTAATCTTTCTGTTCAAGCGCCATCTAC | 1.24 RPM ratio (pull-down/input)
16 | GATGATTGTTCTCCCAGCTGATGAATTGCCTCTTTCGAGTAAACAAATTTTCCTAATCTTTCTGTTCAAGCGCCATCTAC | 1.15 RPM ratio (pull-down/input)
17 | GATGATTGTTCTCCCAGCTGATGAATTTACTAGGTCGAGTAAACAAATTTTCCTAATCTTTCTGTTCAAGCGCCATCTAC | 1.09 RPM ratio (pull-down/input)
18 | GATGATTGTTCTCCCAGCTGATGAATTTTCCAGATCGAGTAAACAAATTTTCCTAATCTTTCTGTTCAAGCGCCATCTAC | 0.885 RPM ratio (pull-down/input)
19 | GATGATTGTTCTCCCAGCTGATGAATTCTATACGTCGAGTAAACAAATTTTCCTAATCTTTCTGTTCAAGCGCCATCTAC | 0.962 RPM ratio (pull-down/input)
20 | GATGATTGTTCTCCCAGCTGATGAATTACTTCAGTCGAGTAAACAAATTTTCCTAATCTTTCTGTTCAAGCGCCATCTAC | 0.978 RPM ratio (pull-down/input)
21 | GATGATTGTTCTCCCAGCTGATGAATTTTTGCAATCGAGTAAACAAATTTTCCTAATCTTTCTGTTCAAGCGCCATCTAC | 1.26 RPM ratio (pull-down/input)

Row | Sequence | binding signal
22 | GATGATTGTTCTCCCAGCTGATGAATTTAGCTTGTCGAGTAAACAAATTTTCCTAATCTTTCTGTTCAAGCGCCATCTAC | 0.967 RPM ratio (pull-down/input)
23 | GATGATTGTTCTCCCAGCTGATGAATTCAGCAGCTCGAGTAAACAAATTTTCCTAATCTTTCTGTTCAAGCGCCATCTAC | 0.764 RPM ratio (pull-down/input)
24 | GATGATTGTTCTCCCAGCTGATGAATTACTAGTATCGAGTAAACAAATTTTCCTAATCTTTCTGTTCAAGCGCCATCTAC | 1.27 RPM ratio (pull-down/input)
25 | GATGATTGTTCTCCCAGCTGATGAATTGCGGTTCTCGAGTAAACAAATTTTCCTAATCTTTCTGTTCAAGCGCCATCTAC | 0.916 RPM ratio (pull-down/input)
26 | GATGATTGTTCTCCCAGCTGATGAATTGTACTCATCGAGTAAACAAATTTTCCTAATCTTTCTGTTCAAGCGCCATCTAC | 1.04 RPM ratio (pull-down/input)
27 | GATGATTGTTCTCCCAGCTGATGAATTTGTATGCTCGAGTAAACAAATTTTCCTAATCTTTCTGTTCAAGCGCCATCTAC | 1.43 RPM ratio (pull-down/input)
28 | GATGATTGTTCTCCCAGCTGATGAATTCGGAAAGTCGAGTAAACAAATTTTCCTAATCTTTCTGTTCAAGCGCCATCTAC | 0.767 RPM ratio (pull-down/input)
29 | GATGATTGTTCTCCCAGCTGATGAATTCGTCTATTCGAGTAAACAAATTTTCCTAATCTTTCTGTTCAAGCGCCATCTAC | 0.974 RPM ratio (pull-down/input)
30 | GATGATTGTTCTCCCAGCTGATGAATTACTGTCATCGAGTAAACAAATTTTCCTAATCTTTCTGTTCAAGCGCCATCTAC | 1.34 RPM ratio (pull-down/input)
31 | GATGATTGTTCTCCCAGCTGATGAATTCATACGCTCGAGTAAACAAATTTTCCTAATCTTTCTGTTCAAGCGCCATCTAC | 0.87 RPM ratio (pull-down/input)
32 | GATGATTGTTCTCCCAGCTGATGAATTGTTACTCTCGAGTAAACAAATTTTCCTAATCTTTCTGTTCAAGCGCCATCTAC | 1.24 RPM ratio (pull-down/input)
33 | GATGATTGTTCTCCCAGCTGATGAATTAGGAAGGTCGAGTAAACAAATTTTCCTAATCTTTCTGTTCAAGCGCCATCTAC | 0.81 RPM ratio (pull-down/input)
34 | GATGATTGTTCTCCCAGCTGATGAATTCAAGCCGTCGAGTAAACAAATTTTCCTAATCTTTCTGTTCAAGCGCCATCTAC | 0.753 RPM ratio (pull-down/input)
35 | GATGATTGTTCTCCCAGCTGATGAATTCTGCCTCTCGAGTAAACAAATTTTCCTAATCTTTCTGTTCAAGCGCCATCTAC | 0.93 RPM ratio (pull-down/input)
36 | GATGATTGTTCTCCCAGCTGATGAATTGCGCTGGTCGAGTAAACAAATTTTCCTAATCTTTCTGTTCAAGCGCCATCTAC | 1.13 RPM ratio (pull-down/input)
37 | GATGATTGTTCTCCCAGCTGATGAATTTAGCTCGTCGAGTAAACAAATTTTCCTAATCTTTCTGTTCAAGCGCCATCTAC | 0.852 RPM ratio (pull-down/input)
38 | GATGATTGTTCTCCCAGCTGATGAATTATTTTGGTCGAGTAAACAAATTTTCCTAATCTTTCTGTTCAAGCGCCATCTAC | 1.35 RPM ratio (pull-down/input)
39 | GATGATTGTTCTCCCAGCTGATGAATTTAGGAGTTCGAGTAAACAAATTTTCCTAATCTTTCTGTTCAAGCGCCATCTAC | 0.96 RPM ratio (pull-down/input)
40 | GATGATTGTTCTCCCAGCTGATGAATTAGGCTTTTCGAGTAAACAAATTTTCCTAATCTTTCTGTTCAAGCGCCATCTAC | 0.831 RPM ratio (pull-down/input)
41 | GATGATTGTTCTCCCAGCTGATGAATTAGACTAGTCGAGTAAACAAATTTTCCTAATCTTTCTGTTCAAGCGCCATCTAC | 0.914 RPM ratio (pull-down/input)
42 | GATGATTGTTCTCCCAGCTGATGAATTCGTATGTTCGAGTAAACAAATTTTCCTAATCTTTCTGTTCAAGCGCCATCTAC | 1.11 RPM ratio (pull-down/input)

Row | Sequence | binding signal
43 | GATGATTGTTCTCCCAGCTGATGAATTTGCACAATCGAGTAAACAAATTTTCCTAATCTTTCTGTTCAAGCGCCATCTAC | 1.49 RPM ratio (pull-down/input)
44 | GATGATTGTTCTCCCAGCTGATGAATTTTGTCGGTCGAGTAAACAAATTTTCCTAATCTTTCTGTTCAAGCGCCATCTAC | 0.897 RPM ratio (pull-down/input)
45 | GATGATTGTTCTCCCAGCTGATGAATTCAATTTATCGAGTAAACAAATTTTCCTAATCTTTCTGTTCAAGCGCCATCTAC | 1.19 RPM ratio (pull-down/input)
46 | GATGATTGTTCTCCCAGCTGATGAATTACAGGACTCGAGTAAACAAATTTTCCTAATCTTTCTGTTCAAGCGCCATCTAC | 0.979 RPM ratio (pull-down/input)
47 | GATGATTGTTCTCCCAGCTGATGAATTGGCCTATTCGAGTAAACAAATTTTCCTAATCTTTCTGTTCAAGCGCCATCTAC | 0.922 RPM ratio (pull-down/input)
48 | GATGATTGTTCTCCCAGCTGATGAATTGTGATCTTCGAGTAAACAAATTTTCCTAATCTTTCTGTTCAAGCGCCATCTAC | 1.22 RPM ratio (pull-down/input)
49 | GATGATTGTTCTCCCAGCTGATGAATTATCCGTATCGAGTAAACAAATTTTCCTAATCTTTCTGTTCAAGCGCCATCTAC | 1.02 RPM ratio (pull-down/input)
50 | GATGATTGTTCTCCCAGCTGATGAATTTTCAGGTTCGAGTAAACAAATTTTCCTAATCTTTCTGTTCAAGCGCCATCTAC | 0.85 RPM ratio (pull-down/input)
51 | GATGATTGTTCTCCCAGCTGATGAATTAGTAATATCGAGTAAACAAATTTTCCTAATCTTTCTGTTCAAGCGCCATCTAC | 1.18 RPM ratio (pull-down/input)
52 | GATGATTGTTCTCCCAGCTGATGAATTCATATTATCGAGTAAACAAATTTTCCTAATCTTTCTGTTCAAGCGCCATCTAC | 1.24 RPM ratio (pull-down/input)
53 | GATGATTGTTCTCCCAGCTGATGAATTCGCGCACTCGAGTAAACAAATTTTCCTAATCTTTCTGTTCAAGCGCCATCTAC | 0.879 RPM ratio (pull-down/input)
54 | GATGATTGTTCTCCCAGCTGATGAATTGTTTATCTCGAGTAAACAAATTTTCCTAATCTTTCTGTTCAAGCGCCATCTAC | 2.68 RPM ratio (pull-down/input)
55 | GATGATTGTTCTCCCAGCTGATGAATTGCGTCGATCGAGTAAACAAATTTTCCTAATCTTTCTGTTCAAGCGCCATCTAC | 1.04 RPM ratio (pull-down/input)
56 | GATGATTGTTCTCCCAGCTGATGAATTAAGCTGCTCGAGTAAACAAATTTTCCTAATCTTTCTGTTCAAGCGCCATCTAC | 0.944 RPM ratio (pull-down/input)
57 | GATGATTGTTCTCCCAGCTGATGAATTCGTCGGGTCGAGTAAACAAATTTTCCTAATCTTTCTGTTCAAGCGCCATCTAC | 0.832 RPM ratio (pull-down/input)
58 | GATGATTGTTCTCCCAGCTGATGAATTGGGATAATCGAGTAAACAAATTTTCCTAATCTTTCTGTTCAAGCGCCATCTAC | 1.19 RPM ratio (pull-down/input)
59 | GATGATTGTTCTCCCAGCTGATGAATTGTCTCGATCGAGTAAACAAATTTTCCTAATCTTTCTGTTCAAGCGCCATCTAC | 0.988 RPM ratio (pull-down/input)
60 | GATGATTGTTCTCCCAGCTGATGAATTCGCTGGGTCGAGTAAACAAATTTTCCTAATCTTTCTGTTCAAGCGCCATCTAC | 0.757 RPM ratio (pull-down/input)
61 | GATGATTGTTCTCCCAGCTGATGAATTCCAGACGTCGAGTAAACAAATTTTCCTAATCTTTCTGTTCAAGCGCCATCTAC | 0.819 RPM ratio (pull-down/input)
62 | GATGATTGTTCTCCCAGCTGATGAATTCTTGCTTTCGAGTAAACAAATTTTCCTAATCTTTCTGTTCAAGCGCCATCTAC | 1.41 RPM ratio (pull-down/input)
63 | GATGATTGTTCTCCCAGCTGATGAATTATGATTTTCGAGTAAACAAATTTTCCTAATCTTTCTGTTCAAGCGCCATCTAC | 1.19 RPM ratio (pull-down/input)

— article PMC12820563, “FoxP3 forms a head-to-head dimer in vivo and stabilizes its multimerization on adjacent microsatellites”
